Experimental data as given in PubChem BioAssay AID1768 (National Center for Advancing Translational Sciences (NCATS), 2009).
Among all 270,000 compounds or so, about 620 (0.23%) were called active. Inconclusive results, whose numbers are uncertain, are shown with a selection of clear calls. The call rests on the fitted dose curve; in most records, active means well fitted inhibition curve with a large enough effect in the polarisation, with a control signal flat (not every such curve was filed as active); inconclusive means small, poorly fitted or top-dose-only effect, or effect the other way, or a change in a side signal; inactive means no such curve, though single readings can be large or run the other way; the % refers to the polarisation. A potency beside an inconclusive call is a rough fit, not a confirmed value. A note “side channel” means that the fit belongs to a control or component signal, not to the main read-out.

biological target: Menin (Homo sapiens) (UniProt O00255); test: qHTS Assay for Inhibitors Targeting the Menin-MLL Interaction in MLL Related Leukemias: Competition With Texas Red Labeled MLL-derived Mutant Peptide; details: fluorescence polarization; series mostly up to 61.6 µM
Potency means the concentration at half of the fitted maximal effect; tags describe the fitted curve by direction and shape or compound fluorescence and quenching.

Sequence of UniProt O00255 (O00255 whole entry, looked up): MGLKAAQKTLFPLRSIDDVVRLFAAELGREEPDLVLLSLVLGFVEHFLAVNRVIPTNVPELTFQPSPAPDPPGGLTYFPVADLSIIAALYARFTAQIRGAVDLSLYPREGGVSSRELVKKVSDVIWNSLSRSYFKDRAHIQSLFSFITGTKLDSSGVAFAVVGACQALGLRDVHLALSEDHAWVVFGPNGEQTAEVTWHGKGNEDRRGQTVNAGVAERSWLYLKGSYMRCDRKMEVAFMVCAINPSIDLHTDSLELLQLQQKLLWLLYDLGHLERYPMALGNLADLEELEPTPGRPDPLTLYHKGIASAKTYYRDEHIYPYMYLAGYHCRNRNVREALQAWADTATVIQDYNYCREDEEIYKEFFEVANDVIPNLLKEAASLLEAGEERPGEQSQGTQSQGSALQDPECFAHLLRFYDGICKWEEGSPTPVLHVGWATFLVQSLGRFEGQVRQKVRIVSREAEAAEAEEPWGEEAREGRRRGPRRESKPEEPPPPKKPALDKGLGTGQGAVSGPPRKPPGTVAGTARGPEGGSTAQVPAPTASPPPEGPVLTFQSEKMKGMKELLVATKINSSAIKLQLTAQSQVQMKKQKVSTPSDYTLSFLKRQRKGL

Potency, inconclusive:
N#Cc1c(SCC(=O)Nc2ccccc2)nsc1SCC(=O)Nc1ccccc1 7.08 µM [quencher, side channel, single point]
COc1ccc(OC)c(NC(=O)Cc2cccs2)c1 39.8 µM [quencher, side channel, single point]
O=C(/C(=N/N=C/c1ccc(O)c(O)c1O)c1ccccc1)c1ccccc1 3.98 µM [quencher, side channel, partial curve]
COc1ccc([N+](=O)[O-])cc1NC(=O)CSc1nccc(C)n1 22.4 µM [quencher, side channel, single point]
CC1CCN(C(=O)/C(=C\c2cccs2)NC(=O)c2ccccc2)CC1 28.2 µM [quencher, side channel, single point]
Cc1cccc(C)c1NC(=O)CCS(=O)(=O)c1cccc2nonc12 44.7 µM [quencher, side channel, single point]
CCc1nn(CCCC(=O)N2CCN(c3cccc(C)c3C)CC2)c(=O)c2cc3occc3n12 15.8 µM [fluorescent, side channel, partial curve]
COc1ccc(CNC(=O)CSc2n[nH]c(N)n2)cc1 35.5 µM [inhibitor, partial curve, poor fit]
CCC1CCCCN1C(=O)c1sc2nc(C)nc(N(CC)CC)c2c1C (stereo not drawn) 3.55 µM [fluorescent, side channel, full curve]
O=C(NCCCCCCNC(=O)ON=C1CCCCC1)ON=C1CCCCC1 8.91 µM [fluorescent, side channel, partial curve]
Cc1c(OCC(=O)OC(C)(C)C)ccc2c3c(c(=O)oc12)CCC3 14.1 µM [fluorescent, side channel, partial curve]
COc1ccc(C2C(C#N)=C(N)Oc3c2c(C)nn3-c2ccccc2)cc1Cn1nc(C)c([N+](=O)[O-])c1C (stereo not drawn) 14.1 µM [quencher, side channel, partial curve]
O=[N+]([O-])c1cccc(-c2nc3ccc([N+](=O)[O-])cc3[nH]2)c1 7.94 µM [quencher, side channel, full curve]
CCOc1ccc(C2N(c3cc(C)on3)C(=O)C3CCCN32)cc1OC (stereo not drawn) 39.8 µM [inhibitor, single point]
CN(C)S(=O)(=O)c1cccc(-c2cn3ccccc3n2)c1 35.5 µM [inhibitor, single point]
COc1cc(/C=N/Nc2ccccn2)ccc1OCC(C)C 15.8 µM [quencher, side channel, partial curve]
COc1ccc(C2C(C#N)=C(N)OC3=C2C(=O)CC(C)C3)c(OC)c1OC (stereo not drawn) 3.98 µM [inhibitor, partial curve]
CN(C)C(=O)N1CCC(C(=O)N2CCCC(C(=O)c3ccc(C(C)(C)C)cc3)C2)CC1 (stereo not drawn) 1.26 µM [fluorescent, side channel, full curve, poor fit]
O=C1/C(=C2\C(=O)N(Cc3ccc(F)cc3)c3ccccc32)SC(=S)N1CCS(=O)(=O)O 25.1 µM [quencher, side channel, partial curve]
O=C(Nc1scc(-c2ccccc2)c1C(=O)O)c1ccc(F)cc1 17.8 µM [quencher, side channel, partial curve, poor fit]
COc1ccc(-c2nc(C#N)c(NCc3ccc(F)cc3)o2)cc1OC 35.5 µM [quencher, side channel, single point]
COc1ccc(C(=O)NC2CCN(C(=S)Nc3cccc(C)c3C)CC2)cc1 3.98 µM [fluorescent, side channel, full curve]
CCOc1ccccc1CNC(=O)CCc1cn(CC)c2ccccc12 39.8 µM [quencher, side channel, single point]
O=C(CCl)N(C/C=C/c1ccccc1)c1ccc2c(c1)OCCO2 10 µM [fluorescent, side channel, partial curve]
COc1ccc(C(C(=O)NC(C)(C)C)N(CC2CCCO2)C(=O)CCC(=O)Nc2cc(C)on2)cc1 (stereo not drawn) 8.91 µM [fluorescent, side channel, partial curve]
CCOC(=O)c1ccccc1NC(=O)CSc1nnc(Cc2cccn2C)n1-c1ccc(C)cc1 3.16 µM [fluorescent, side channel, partial curve]
COc1ccc(N2CCN(CC(=O)Nc3ccccc3SC)CC2)cc1 7.94 µM [fluorescent, side channel, partial curve]
Cc1cc(NC(=O)CSc2nc(-c3ccc(F)cc3)cs2)no1 22.4 µM [quencher, side channel, single point]
COc1cccc(CN(C)C(=O)C23CC4CC(CC(C4)C2)C3)c1 12.6 µM [inhibitor, partial curve]

Potency, inactive:
Cc1ccc(/C=C/c2nnc(-c3cccc(C)c3)o2)cc1
CCCCC(=O)O[C@]1(C(=O)CO)CCC2C3CCC4=CC(=O)CCC4(C)C3C(O)CC21C (stereo partly drawn)
CCCCc1cc(=O)oc2c(C)c(OCC(=O)N3CCC(C(N)=O)CC3)ccc12
Cc1cc(C)nc(SCc2ccc(Cl)cc2)n1
O=C(NCCC1=CCCCC1)C1CCN(S(=O)(=O)N2CCOCC2)CC1
O=C(Oc1ccccc1)N1CCC[C@@]2(CCN(c3ccncc3)C2)C1
Cc1cc(C)n(CCC(=O)N/N=C/c2ccc(O)cc2)n1
Cc1ccsc1C1Nc2ccc3ncccc3c2C2=C1C(=O)CC(C)(C)C2 (stereo not drawn)

Potency, active:
Cc1ccn2c(Nc3ccc4c(c3)OCO4)c(-c3ccccn3)nc2c1 35.5 µM
